# Reference: PubChem BioAssay AID1346428 (National Center for Advancing Translational Sciences (NCATS), 2018)
# Where “and” joins values, the source holds several entries; their conditions need not be identical. Equal entries are not always repeated. The campaign covered roughly 48,000 compounds. About 1,200 (2.5%) were called active. About 2% were inconclusive and are not listed.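 Rule for the calls: active = activation of at least 60% and not above a set upper limit (about 1 call in 100 departs from these limits); inconclusive = activation of 40% to 60%, or above that upper limit; inactive = activation under 40%.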 The list shows a part of the results.
# Biological target: Probable G-protein coupled receptor 32 (Homo sapiens) (UniProt O75388)
# UniProt O75388, sequence (O75388 whole entry, looked up): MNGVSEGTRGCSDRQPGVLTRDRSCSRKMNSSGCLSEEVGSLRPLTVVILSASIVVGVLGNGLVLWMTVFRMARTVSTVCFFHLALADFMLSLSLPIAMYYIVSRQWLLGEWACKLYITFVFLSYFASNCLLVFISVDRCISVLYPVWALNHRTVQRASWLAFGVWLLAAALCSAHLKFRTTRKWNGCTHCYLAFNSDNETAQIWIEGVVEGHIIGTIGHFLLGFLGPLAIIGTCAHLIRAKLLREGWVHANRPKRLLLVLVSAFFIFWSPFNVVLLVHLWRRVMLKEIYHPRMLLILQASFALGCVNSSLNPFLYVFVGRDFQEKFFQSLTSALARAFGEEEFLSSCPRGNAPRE
# Test: qHTS for Agonists of Human Resolvin D1 Receptor DRV1; note: 0% is about no effect
# Details: CHO-K1 GPR32 beta-arrestin PathHunter luminescence, 90 min; at 76.9 µM; stronger effect = higher value; zero percent set by DMSO-only wells
# Procedure, shortened: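 Cells are plated overnight, treated with compounds in DMSO for 90 minutes at 37 °C, and developed with PathHunter detection reagent for 1 hour before luminescence is read; signal reflects beta-arrestin binding to GPR32 in engineered CHO-K1 cells.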
row,Compound,activation
1,CCCCc1ccc(NC(=O)CSc2nc3ccccc3nc2N2CCOCC2)cc1,inactive: -6.28%
2,CCc1cccc(C)c1NC(=O)Cn1ccn(Cc2ccc(Cl)cc2)c(=O)c1=O,inactive: -9.4%
3,Cc1cc(CCCOc2c(C)cc(-c3noc(C(F)(F)F)n3)cc2C)on1,inactive: 20.8%
4,Cc1ccc(-c2[nH]c(-c3ccccc3)nc2SCC(=O)NCC2CCCO2)cc1 (stereo not given),inactive: -19.6%
5,COc1ccc(NC(=O)CN(C)S(=O)(=O)c2cnc[nH]2)cc1Cl,inactive: 2.88%
6,c1ccc(-c2nnc(CN3CCN(c4ccccc4)CC3)o2)cc1,inactive: -10.9%
7,COc1ccc(-c2noc(COc3ccc(Br)cc3C)n2)cc1OC,inactive: -8.18%
8,Cc1ccc2c(c1C)NC(=O)CC2c1ccc(Cl)cc1Cl (stereo not given),inactive: 22.6%
9,CCc1ccc(OCC(=O)Nc2ccc(-c3nc4ncccc4o3)cc2)cc1,inactive: -3.29%
10,O=C(O)c1ccc(NC(=O)c2cn(-c3ccccc3)nc2-c2ccc(Br)cc2)cc1,inactive: -3.03%
11,OCCOCCN1CCN(C(c2ccccc2)c2ccc(Cl)cc2)CC1 (stereo not given),inactive: 8.67%
12,O=C(CC1N=C2c3ccccc3N=C(SCc3cccc(F)c3)N2C1=O)NCc1ccc2c(c1)OCO2 (stereo not given),inactive: 19%
13,CCC(O)c1cc2c(cc1NC(=O)c1ccccc1F)OCCO2 (stereo not given),inactive: 1.78%
14,Cc1ccc(OCC(=O)Nc2cccc(C(=O)OCc3cc(=O)n4nc(C)sc4n3)c2)cc1,inactive: -2.55%
15,COc1cccc(CNC(=O)C(=O)Nc2ccc3nc4n(c(=O)c3c2)CCCCC4)c1,inactive: 13.5%
16,Cc1ccc2nc(Cl)c3cc(C(=O)NC4CCC(C)CC4)sc3c2c1 (stereo not given),inactive: -19.4%
17,Cc1ccc(N2CCN(C(=O)c3cc(S(=O)(=O)N4CCCCC4)c[nH]3)CC2)c(C)c1,inactive: 16.1%
18,Cc1ccc(-c2cc(C(=O)Oc3ccccc3Cl)no2)cc1C,inactive: 7.41%
19,CCN1CCN(C(=O)Cn2c(-c3cccs3)cc3ccccc32)CC1,inactive: -13.6%
20,O=C(O)CNC(=O)c1ccccc1I,inactive: -6.56%
21,COc1nc(-c2ccccc2)ccc1-c1noc(-c2ccccc2Br)n1,inactive: -22%
22,COc1cccc(OCc2cc(=O)n3c(-c4ccccc4)csc3n2)c1,active: 121%
23,COc1ccc(CCNC(=O)c2ccc3c(c2)N(Cc2ccccc2F)C(=O)c2ccccc2S3=O)cc1OC (stereo not given),inactive: -10.8%
24,CCN(CC)S(=O)(=O)c1ccc(C(=O)NCCSc2c(-c3ccc(C)cc3)[nH]c3ccccc23)cc1,inactive: -15.1%
25,COc1ccc(N2CCN(S(=O)(=O)CCNC(=O)COc3ccccc3F)CC2)cc1,inactive: -13.8%
26,O=C(CN1C(=O)COc2ccc(S(=O)(=O)N3CCCC3)cc21)N1CCN(c2cccc(C(F)(F)F)c2)CC1,inactive: 17.7%
27,CCOc1ccccc1CNC(=O)CCc1c(C)nn(-c2ccc(N3CCOCC3)nn2)c1C,inactive: 0%
28,CN1C(=O)c2ccccc2Sc2ccc(NC(=O)NCc3cccc(Cl)c3)cc21,inactive: 1.42%

row,Compound,activation
1,Cc1ccc(C(=O)Oc2c(S(=O)(=O)c3ccccc3)c(C)nn2-c2ccccc2)cc1,inactive: 2.13%
2,CCOC(=O)CSc1nc(-c2ccc(Cl)cc2)cc(C(F)(F)F)c1C#N,inactive: 49.4%
3,Cc1ccccc1N1C(=O)c2cc(S(N)(=O)=O)c(Cl)cc2NC1C (stereo not given),inactive: -14.9% and inactive: 3.94%
4,Cc1ccccc1C(=O)NCCc1csc(-c2ccc(C(F)(F)F)cc2)n1,inactive: 2.98%
5,COc1ccc(-n2c(-c3ccc(C)cc3)cc3c2CC(C)(C)CC3=O)c(OC)c1,inactive: -23.7%
6,Cc1ccc(Cc2nc3ccccc3nc2SCC(=O)N2CCCc3ccccc32)cc1,inactive: -17.2%
7,Cc1ccc(NC(=O)CCNS(=O)(=O)c2cccc3nonc23)cc1Cl,inactive: -26.4%
8,Cc1cn2c(=O)cc(COC(=O)c3cccc(NC(=O)COc4ccccc4C)c3)nc2s1,inactive: -9.11%
9,Cc1ccc(CNC(=O)CSc2c3c(nc4cc(Cl)ccc24)CCCC3)cc1,inactive: -7.58%
10,CCCNC(=O)C(C)n1nc(C)c2c(C)n(-c3ccccc3)nc2c1=O (stereo not given),inactive: -12.6%
11,Cc1c(-c2nc(-c3ccccc3F)no2)nnn1-c1cc(F)ccc1F,inactive: -2.99%
12,O=c1oc2cc(O)ccc2cc1-c1nnc(Nc2ccccc2F)s1,inactive: 6.21%
13,CC[C@H](NC(C)C)[C@H](O)c1ccc(O)c2[nH]c(=O)ccc12,inactive: -15.3%
14,COc1ccc2nc(NC(=O)c3nc(SCc4ccccc4F)ncc3Cl)sc2c1,inactive: -7.83%
15,Cc1cc(C)n(-c2nc3cc(Cl)ccc3nc2Nc2ccc(CC(=O)O)cc2)n1,inactive: 2.8%
16,COc1ccccc1CNC(=O)C1CCN(S(=O)(=O)c2ccc3c(ccn3C)c2)CC1,inactive: -14.6%
17,CCCn1c(=O)c2[nH]c(-c3ccc(S(=O)(=O)O)cc3)nc2n(CCC)c1=O,inactive: 4.65%
18,Cc1cccc(NC(c2ccccc2C)c2ccc3ccc(C)nc3c2O)n1 (stereo not given),inactive: -20.5%
19,CCNC(=O)C1CCN(c2nnc(C)c3c(C)n(-c4ccc(OC)cc4)nc23)CC1,inactive: -3.78%
20,COC(=O)c1c(-c2cccs2)csc1NC(=O)c1ccc(OC)c(OC)c1,inactive: 5.03%
21,Cc1ccc2c(c1)NC(=O)c1cccnc1O2,inactive: -9.66%
22,Cc1ccc(-c2nc(CS(=O)(=O)CC(=O)NCCc3ccccc3)c(C)o2)cc1,inactive: -3.19%
23,COc1ccc(S(=O)(=O)c2c(SC)nn(CC(=O)Nc3cccc(C)c3C)c2N)cc1,inactive: 6.37%
24,COc1ccc(CNC(=O)Cn2nc(N3CCN(c4ccccc4)CC3)ccc2=O)c(OC)c1,inactive: 9.78%
25,O=C(Nc1ccc(OCc2cc(=O)n3ccccc3n2)cc1)c1ccccc1Cl,inactive: -16.1%
26,CC1=C(C(=O)Nc2ccccc2)C(c2ccncc2)n2nc(SCc3ccccc3F)nc2N1 (stereo not given),inactive: 1.14%
27,CCC(C)Nc1oc(-c2ccc(COc3ccc(Cl)cc3)o2)nc1C#N (stereo not given),inactive: 3.93%
